From the BET-seq Pho4 binding data (Le et al. 2018)
Some of the results follow. The energies were worked out here from pooled read counts, against the library average; single values are noisy.

target: T1, Pho4 (S. cerevisiae) (UniProt P07270); test: relative binding free energy (BET-seq); higher = weaker binding; conditions: reference: library average
T1 sequence: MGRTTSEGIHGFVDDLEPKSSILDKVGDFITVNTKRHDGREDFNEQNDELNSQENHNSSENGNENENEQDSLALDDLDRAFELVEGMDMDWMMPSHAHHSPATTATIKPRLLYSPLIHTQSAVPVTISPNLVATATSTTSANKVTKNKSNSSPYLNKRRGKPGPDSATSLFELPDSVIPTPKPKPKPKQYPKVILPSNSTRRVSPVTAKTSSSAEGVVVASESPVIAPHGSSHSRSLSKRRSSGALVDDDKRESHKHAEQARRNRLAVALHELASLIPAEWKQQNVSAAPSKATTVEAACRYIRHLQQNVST

Sequence	relative binding free energy [kcal/mol]
TTATTCACGTGTTGAT	0.32
TCTCTCACGTGTGTAT	0.27
GAATTCACGTGAATTT	0.42
TGTTTCACGTGGTCGT	0.24
TAGGTCACGTGTTTTA	0.05
GTTAGCACGTGAGTCG	0.31
TTTTACACGTGTAGCT	0.15
ACTTTCACGTGGTGGG	0.22
GGTTTCACGTGAACTG	0.47
TATGGCACGTGTTGTT	-0.04
TCTTTCACGTGGTAAG	0.36
AATAGCACGTGGAATG	-0.05
TGGGGCACGTGTTCTT	-0.04
TGCTCCACGTGAGGGG	0.32
TATTACACGTGGGGAG	0.01
TAGTACACGTGTTAAG	0.04
GAGGACACGTGTGAAG	0.03
TCTTGCACGTGGGTGG	-0.06
ATATGCACGTGCAGGA	-0.07
TTAAGCACGTGCGCGT	-0.05
GTGGACACGTGGTAAG	0.14
TTAAGCACGTGTGGTC	0.03
GTAGGCACGTGGATCG	-0.08
GGACGCACGTGGTGGC	-0.28
CTTGGCACGTGGCGTT	-0.21

Sequence	relative binding free energy [kcal/mol]
TATAACACGTGGAGTT	0.02
AGTTTCACGTGAGGAC	0.38
CGGTTCACGTGAAGGA	0.28
ATTATCACGTGTGTCT	0.15
TCTCGCACGTGGGTTT	-0.18
TCTGGCACGTGATATG	-0.09
AAGTACACGTGGAGGC	0.22
ATGATCACGTGGCATT	0.11
CGTTGCACGTGTAATT	0.17
GGGTCCACGTGTTGTG	-0.08
CGGATCACGTGTGAGG	0.13
CTGATCACGTGAGGGG	0.34
GTGTTCACGTGGTTAT	0.3
TTGAGCACGTGCTGGG	-0.11
TGGATCACGTGATTAA	0.28
TGGATCACGTGAGCGT	0.26
GATATCACGTGATTAT	0.25
TAGGGCACGTGACCGG	0
TGCTGCACGTGTTCGG	0.06
GTAGTCACGTGATGGG	0.16
TTTGACACGTGAGTGC	0.17
TTGGACACGTGATCGG	0.15
GATTACACGTGGGTTG	0.18
TGGCGCACGTGTGAGG	-0.08
TCGTGCACGTGTAAGT	-0.05

Sequence	relative binding free energy [kcal/mol]
AGGGTCACGTGTGGCC	0.11
GGTATCACGTGTTTGG	0.16
AATAGCACGTGAGGGC	0.18
ATAATCACGTGTAGTA	0.04
CTGAACACGTGTGTTG	0.03
ATTGCCACGTGGGTGT	-0.25
GCTGTCACGTGGTAGA	0.32
TTGGCCACGTGGTTAT	-0.05
GGTTACACGTGGATAA	0.44
ATTCGCACGTGTCGTG	0.02
ATCAACACGTGTTGTG	-0.01
AATAGCACGTGGGTTG	-0.27
GCAAACACGTGGTGGT	-0.01
GGTTTCACGTGTGGGA	0.45
GTCTGCACGTGTTCAT	0.14
GGTGTCACGTGCTCGA	0.15
GTGGGCACGTGATCGA	0.14
CTGAGCACGTGTTTGG	-0.03
TTCTGCACGTGTTTGA	0.01
GTCTGCACGTGTGTAT	0.17
TCTGGCACGTGTGTTT	0.08
ATTATCACGTGGGGGA	0.06
GGTATCACGTGATCTT	0.27
GTAAACACGTGTATGG	-0.09
TGGGACACGTGGATAG	0.16

Sequence	relative binding free energy [kcal/mol]
TAGCGCACGTGAAGTT	0.14
TGAGTCACGTGTGATG	0.28
AGTGTCACGTGTTCAG	0.13
ATTATCACGTGTATAT	0.09
CGTGACACGTGGAGGA	0
AGGGACACGTGTAGCG	0.1
GTTTACACGTGTCGGG	0.29
TGTTGCACGTGTGGGA	0.16
GGGTTCACGTGGAAGA	0.47
GGTATCACGTGTACAT	0.28
ATCGTCACGTGCGGGA	0.09
AAGGTCACGTGGGTCA	0.05
CTTAACACGTGGTAGT	-0.18
TGTGACACGTGGTGAA	0.01
AATTTCACGTGGTCTG	0.26
CGGGTCACGTGGTTGC	0.14
TGGTTCACGTGACGGT	0.23
TTACTCACGTGAAAGT	0.36
TGGTGCACGTGTGACA	0.12
AATTTCACGTGGACAG	0.24
GGAGTCACGTGTTATG	0.1
TTTGGCACGTGAAAGT	0.04
ATAAGCACGTGATTGT	-0.06
ATAGGCACGTGGTTAC	-0.1
AGCATCACGTGTTTGG	0.16

Sequence	relative binding free energy [kcal/mol]
ATAGTCACGTGCGGGG	-0.01
GTGGGCACGTGTAATT	0.02
GTTTTCACGTGTAAGT	0.32
TTTCGCACGTGTTAGT	0
AATTTCACGTGTAGTA	0.23
ATATCCACGTGAGTGT	0.21
GGATACACGTGAAAGG	0.26
TCTGGCACGTGTTTGA	-0.06
GGCGGCACGTGATGGT	0.16
GAAAACACGTGTAGGG	0.09
GCGTTCACGTGTATGA	0.39
TAGGACACGTGTGAAT	0.26
AGTCTCACGTGGGAGA	0.06
GATTGCACGTGTTTGG	0.2
CTGGACACGTGAGTTG	0.27
CTTTACACGTGTGGAT	0.21
AGGAGCACGTGATTGA	0.02
ATTACCACGTGTAGTG	0.02
ATGTGCACGTGAGATT	0.21
AGTTACACGTGCTGGG	0
ATTTGCACGTGCCGTG	-0.04
GGAAGCACGTGGAGGG	-0.11
GTATCCACGTGGGGCT	-0.06
TGATACACGTGGCTTG	-0.1
CAGTGCACGTGATGAG	0.11

Sequence	relative binding free energy [kcal/mol]
GGGACCACGTGGTGGT	-0.15
GGGATCACGTGGGAAT	0.22
TTATGCACGTGAAGAG	0.31
AGGTGCACGTGGGGGC	-0.21
TGCATCACGTGGGGTT	-0.01
GTTTTCACGTGTTAAG	0.32
ATATTCACGTGCAAGG	0.22
GTTTACACGTGAAGTG	0.32
TTGGACACGTGGTACG	-0.2
ATTAACACGTGTCGGT	0.03
TGGGACACGTGCGTTG	-0.04
TTAGTCACGTGAGAGT	0.32
TGATGCACGTGGGAAT	-0.08
AATTTCACGTGTAGGC	0.14
TTGGCCACGTGGTCAG	-0.08
TTGGCCACGTGTGGAG	0.1
ATCGTCACGTGGGGCG	0
TGCGTCACGTGGTCAG	-0.1
TGGCTCACGTGTATGC	0.28
TGGAGCACGTGCTTTG	-0.14
TAACTCACGTGGTATT	0.17
